Whole data set: some 33,000 sequences, median “E-score (-0.5 to 0.5)” near -0.036, cut for the highest 2% near 0.37. Some of the results follow.
What follows are sequences tested against T1, Yer064c (UniProt P40041) (assay: PBM E-score (8-mer binding enrichment) (E-score (-0.5 to 0.5)); higher = stronger / more preferred TF binding; most listed sequences are background and not binding sites). Conditions: protein concentration: 200 nM; construct: GST-full length.
T1 sequence: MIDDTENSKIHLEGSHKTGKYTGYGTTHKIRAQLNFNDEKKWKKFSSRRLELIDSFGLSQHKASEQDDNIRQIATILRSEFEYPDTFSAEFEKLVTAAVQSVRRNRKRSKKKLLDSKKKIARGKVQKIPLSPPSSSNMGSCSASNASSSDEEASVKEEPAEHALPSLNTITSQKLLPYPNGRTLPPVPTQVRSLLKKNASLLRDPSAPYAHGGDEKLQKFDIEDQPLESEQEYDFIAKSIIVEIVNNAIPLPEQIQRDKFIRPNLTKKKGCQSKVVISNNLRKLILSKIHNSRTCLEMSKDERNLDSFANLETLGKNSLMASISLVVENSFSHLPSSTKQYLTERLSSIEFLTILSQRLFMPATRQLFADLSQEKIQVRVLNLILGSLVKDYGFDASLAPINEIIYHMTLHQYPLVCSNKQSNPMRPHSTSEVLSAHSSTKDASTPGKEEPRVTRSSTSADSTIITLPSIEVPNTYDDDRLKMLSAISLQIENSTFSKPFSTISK
Method in brief: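 Bound GST-tagged yeast transcription factors, applied at about 100-200 nM to double-stranded universal all-10-mer Agilent arrays, were detected with fluorescent anti-GST. Scans were normalised with masliner. A modified Wilcoxon-Mann-Whitney statistic, the E-score, was assigned to each ungapped eight-base word pooled with its reverse complement by the Universal PBM Analysis Suite.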

Sequence | PBM E-score
CATGTTCC | -0.138
CTGCTCTA | 0.102
ATAGATGG | -0.175
GCGTGCTA | -0.266
CGGCACGA | -0.0913
ACACCTAG | 0.0458
CAATTATA | 0.0981
CGCCTTTA | 0.0724
GCTTGTGA | 0.0795
CCAGTCTA | 0.022
CGGTAGTA | 0.0891
ACGGGTGC | -0.187
GCTGCCTA | -0.0932
AAATCTAC | -0.0431
CGCCAACA | -0.0208
CTTCTACA | -0.029
GCAGGGAA | -0.155
CTTGTAAA | -0.0979
AAAACCGT | -0.0271
AATCGGAA | 0.203
AGCTTCCT | -0.174
GGGGAGGA | -0.109
ATGGTTGG | -0.106
AGTAATGG | -0.0012
ATTTCGTG | 0.056

Sequence | PBM E-score
AGGACCCG | -0.268
GAACCTTA | -0.0529
AACGCAGT | 0.0574
ATAGCCGA | -0.0195
TCGTCCCA | -0.168
CTAACAGC | 0.0203
AATATATA | -0.112
CAGCCCTA | -0.101
ATTTGTAA | 0.181
ATGCTGTA | -0.0827
GAGTATCC | -0.0247
CATAGACC | -0.1
GGGTTCAC | -0.0282
GGGATCTA | -0.134
ATGATCAG | 0.147
CAGTAGTA | 0.111
GAGTATCA | 0.233
TCGCATCA | 0.0502
ATGTGAAA | 0.00958
ACCACCAA | -0.119
ACAATTCT | -0.0167
CTCAGTGA | 0.235
AAGTGCTC | -0.239
GCTGTAGA | -0.0534
ATCCGCAT | -0.0618

Sequence | PBM E-score
CTAGAACC | -0.0227
CGATCTCA | -0.0277
AAACTTGT | 0.101
GGGCCGAA | -0.287
CCCCGAGG | -0.164
CGGTTAGA | -0.0283
ACATTGCA | -0.103
ACGTTCTG | -0.0716
AACGCCCG | -0.389
CATGAAGC | 0.00225
GATGGTCC | -0.202
ACGCAATA | -0.0491
GACGTCCA | -0.215
TATGTTGA | 0.152
CCAGGACA | -0.19
ACACTTAC | 0.0232
AGTCAAGG | 0.392
GCTCGAAC | -0.138
GCGAGGAA | -0.117
GGCTCCAC | -0.0967
AACAGAGG | -0.221
ACTCACAC | 0.364
GTCCAAAC | -0.0715
AAATAGAC | -0.104
GTACCATA | -0.0203

Sequence | PBM E-score
AGAGGTTG | -0.195
CGTACGTC | -0.241
ATAAAGCG | 0.126
AGTTCGCG | -0.108
GATGAGAA | 0.0561
CCGTCCGC | -0.3
AAGCAACA | -0.101
CAGGGTGC | -0.0756
AGATAGAG | -0.0446
CAAGTTCC | -0.135
GGCCCCGA | -0.205
GAACCAGA | 0.0172
ACTGTAAC | 0.158
ACGCATCA | -0.0554
CAGTTGAA | -0.0486
CGGTCAAG | -0.055
AAGTAGCG | -0.0751
ATGGCACC | -0.45
CTTGACCA | 0.0717
CGCGTTGC | 0.064
AGTTTTAC | -0.0616
CGGGTGCC | -0.315
GGGGGTCA | -0.105
AGAATTCG | 0.0008
TGTTTGAA | 0.0898

Sequence | PBM E-score
ACGTGGTG | -0.207
CGGCTAAA | 0.19
GACGCGTC | -0.23
CCTAACGA | -0.0447
AACATGCG | 0.0179
CTCCCCGC | -0.0173
AGGAAGTA | -0.112
AAAAAGAT | 0.0796
AGGATGCG | -0.269
GTTCCGTA | -0.0386
ACTAGAAG | 0.142
GTATACCA | -0.144
AAACACTA | -0.0799
AAAAGGGA | -0.137
CGCGTTGA | 0.078
CCGAAGAC | 0.107
ATCCAGGC | -0.121
CTCTAGCC | -0.177
GGAAGCCC | -0.374
CTCGCCGC | -0.0478
CGTAGAGA | 0.133
AACCCGAG | -0.142
GGTCCCTA | -0.144
CGATATAC | -0.197
GCCCTCAA | -0.281

Sequence | PBM E-score
CTGTCGTA | -0.00212
ACCGGAGA | -0.00273
CTCTATTC | -0.151
GTTTTACA | -0.0974
GTAATGAC | 0.258
ATCCACGC | -0.172
CACTGCGA | -0.0866
ACGTGCTA | -0.247
CTTCTCAA | 0.161
GCGTACCC | -0.308
AGGAGACA | 0.123
CTGGGTTC | -0.0562
GTAAGAGA | -0.0885
ACCTTTAT | -0.00399
CAATTCGC | -0.00772
GGCGGAGA | -0.0465
GCATCGGC | -0.115
GTAGGTTA | -0.195
GTCTAAGA | 0.178
AACTCGGT | -0.0496
AATGAAAT | 0.135
AGTATCCC | -0.188
AACATTGT | -0.00979
GCTCTACC | -0.174
AAAAAGAA | 0.0335

Sequence | PBM E-score
TCTCTGAA | 0.0685
AATTACGG | -0.197
ATAGAATC | 0.12
ACATGATG | -0.051
GTTTTTAA | 0.0343
AACCCATA | 0.111
ATCGCCGG | 0.0496
ACCGTCGG | -0.156
AGCTCAAC | 0.0619
AGTGACTG | 0.403
GCTCCACC | -0.354
ACCCCTCG | -0.142
CAGTTATC | -0.121
AGTGCTGC | -0.0823
CTATGAGA | 0.141
AAACTCTA | -0.00034
CAGGTTAA | 0.0994
AAAATCTA | 0.0742
AGCTACAA | -0.181
ATGATGGC | -0.22
ACGAGAGA | -0.0232
AAATCACA | 0.219
